Measurements from PMC8329197, “Compounds targeting OSBPL7 increase ABCA1-dependent cholesterol efflux preserving kidney function in two models of kidney disease” (Nature Communications, 2021).

Experiments:
[1] = test system: Adriamycin (ADR)-induced nephropathy in Balb/c mice; assay: ADR nephropathy: blood urea nitrogen (BUN) and serum creatinine; format: in vivo, mouse; conditions: 28 days treatment
Description: Supplement 41467_2021_24890_MOESM5_ESM.xlsx, sheet "Supplementary Table 4" | column: ADR+ Cpd A; ADR+ Cpd G; ADR+ Cpd C

Col4a3 KO mice = assay: Alport syndrome model: ACR, serum creatinine, BUN, body weight (also vs ramipril); conditions: Col4A3 KO, age 8 weeks, Cpd G 100 mg/Kg/day
[2] = test system: Adriamycin (ADR)-induced nephropathy in Balb/c mice; assay: ADR nephropathy: serum cholesterol and triglycerides; format: in vivo, mouse; conditions: ADR-injected mice, 28-day treatment

**Q.** What does the source list for `O=C(N[C@@H]1CCCC[C@H]1O)c1cnc(OCC(F)(F)F)c(-c2ccc(Cl)c(Cl)c2)c1` [Cpd G]?
**A.** BUN, QR(25) ([1]; 25th quartile): 15 mg/dL; sCre, QR(25) ([1]; 25th quartile): 0.1025 mg/dL; BUN, QR(75) ([1]; 75th quartile): 17.75 mg/dL; sCre, QR(75) ([1]; 75th quartile): 0.12 mg/dL; BUN, Max ([1]; group maximum): 22 mg/dL; sCre, Max ([1]; group maximum): 0.14 mg/dL; BUN, Median ([1]; group median): 16 mg/dL; sCre, Median ([1]; group median): 0.115 mg/dL; BUN, Min ([1]; group minimum): 13 mg/dL; sCre, Min ([1]; group minimum): 0.09 mg/dL; SERUM CREATININE, Median (Col4a3 KO mice): 2.85 µg/mL; WEIGHT (g), Median (Col4a3 KO mice): 15.61 g; Serum cholesterol, QR(25) ([2]; 25th quartile): 94.5 mg/dL; Serum triglycerides, QR(25) ([2]; 25th quartile): 87.75 mg/dL; Serum cholesterol, QR(75) ([2]; 75th quartile): 113.75 mg/dL; Serum triglycerides, QR(75) ([2]; 75th quartile): 131.25 mg/dL; Serum cholesterol, Max ([2]; group maximum): 121 mg/dL; Serum triglycerides, Max ([2]; group maximum): 140 mg/dL; Serum cholesterol, Median ([2]; group median): 104 mg/dL; Serum triglycerides, median ([2]; group median): 113 mg/dL; Serum cholesterol, Min ([2]; group minimum): 85 mg/dL; Serum triglycerides, Min ([2]; group minimum): 68 mg/dL
